The whole screen tested about 270,000 compounds, of which about 5,800 (2.1%) were called active. Inconclusive means that the source gave no clear call. Such entries were picked first, then a sample of the others. Calls come from the whole dose curve; as a rule, active = well fitted inhibition curve with a large enough effect; inconclusive = small, poorly fitted or top-dose-only effect; inactive = flat fitted curve, though single readings scatter. Where the call is inconclusive, the potency comes from a doubtful curve fit.
biological target: Microtubule-associated protein tau (Homo sapiens) (UniProt P10636); assay: qHTS for Inhibitors of Tau Fibril Formation, Thioflavin T Binding; conditions: recombinant tau K18 P301L (four-repeat tau fragment), heparin-induced fibrillization, ThT fluorescence; series mostly up to 57.4 µM; note: nearly all actives have a fitted effect of over 55% in size
In short: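 In this qHTS, human K18 P301L tau is incubated with compound and heparin for 6 hr at 37 C, and Thioflavin T fluorescence then reports fibril load.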
% is set by controls: 0 for no effect and ±100 for the full control effect; potency is the fitted concentration of half-maximal effect; tags give direction and shape of the fitted curve.

UniProt P10636, sequence (P10636 whole entry, looked up, the tested form may be a part): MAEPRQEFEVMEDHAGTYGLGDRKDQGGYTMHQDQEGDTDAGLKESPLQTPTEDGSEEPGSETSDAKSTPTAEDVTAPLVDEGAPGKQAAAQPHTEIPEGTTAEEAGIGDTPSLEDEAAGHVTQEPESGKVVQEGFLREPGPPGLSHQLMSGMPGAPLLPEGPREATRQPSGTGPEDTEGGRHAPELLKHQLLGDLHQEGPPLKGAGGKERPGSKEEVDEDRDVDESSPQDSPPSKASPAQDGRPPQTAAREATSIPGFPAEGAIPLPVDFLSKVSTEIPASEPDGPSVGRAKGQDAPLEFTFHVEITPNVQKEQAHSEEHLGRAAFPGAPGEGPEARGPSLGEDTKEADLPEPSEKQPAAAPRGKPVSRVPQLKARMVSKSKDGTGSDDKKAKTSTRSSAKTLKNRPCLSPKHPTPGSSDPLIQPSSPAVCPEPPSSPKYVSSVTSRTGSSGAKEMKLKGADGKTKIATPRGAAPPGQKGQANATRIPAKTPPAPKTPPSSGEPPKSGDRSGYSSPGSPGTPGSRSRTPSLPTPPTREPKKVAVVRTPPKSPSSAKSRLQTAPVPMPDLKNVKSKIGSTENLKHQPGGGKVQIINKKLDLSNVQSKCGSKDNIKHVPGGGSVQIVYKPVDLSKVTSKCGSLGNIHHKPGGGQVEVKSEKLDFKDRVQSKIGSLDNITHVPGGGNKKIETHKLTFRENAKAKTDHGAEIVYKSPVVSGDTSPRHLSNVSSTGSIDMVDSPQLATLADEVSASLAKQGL

With COc1ccc(OCC2CC3C(CCC(C)C3c3ccc(Br)cc3)C(=O)O2)cc1 (stereo not drawn) as the molecule, how does the activity, negative = inhibition read?
The activity, negative = inhibition was inactive: -18.1% [at 11.5 µM].

COC(=O)C1=C(C(=O)OC)SC(=C2C(=S)C(C)(C)N(C(=O)C(C)C)c3ccccc32)S1 was tested. Which Potency did it give?
The Potency was active: 1 µM.

Which Potency does the source give for CC(=O)c1ccc(NC(=O)CSc2ccsc2[N+](=O)[O-])cc1 here?
The Potency was inconclusive: 3.55 µM [inhibitor, full curve].

With O=C(CSc1cn(CCNC(=O)c2ccccc2F)c2ccccc12)Nc1ccc2c(c1)OCCO2 as the molecule, how does the Potency read?
The Potency was inconclusive: 17.8 µM [inhibitor, partial curve].

Which Potency does the source give for CCCOc1ccc(NC(=O)CC2C(=O)N(c3cccc(OC)c3)C(=O)N2CCc2ccncc2)cc1 (stereo not drawn) here?
Its Potency is “inactive”.

With CCOC(=O)c1[nH]c(C)c(C(=O)Nc2ccc(C)c(C)c2)c1C as the molecule, how does the Potency read?
Its Potency is inconclusive: 20 µM [inhibitor, single point].

With CCCS(=O)(=O)c1c(S(=O)(=O)CCC)c2c(N)cccn2c1C(=O)c1ccc(Br)cc1 as the molecule, how does the Potency read?
Its Potency is inconclusive: 44.7 µM [inhibitor, single point].

For CCN(CC)CCN(Cc1cc2cc3c(cc2[nH]c1=O)OCO3)C(=S)NCc1ccco1, which Potency is on record?
The Potency was inconclusive: 35.5 µM [inhibitor, single point].

With CCCCOC(=O)c1ccc(N2C(=O)CC(N3CCN(C/C=C/c4ccccc4)CC3)C2=O)cc1 (stereo not drawn) as the molecule, how does the Potency read?
The Potency was inconclusive: 44.7 µM [inhibitor, partial curve].

Which Potency does the source give for O=C(Nc1ccc2c(c1)OCO2)C1CC(c2ccccc2Cl)=NO1 (stereo not drawn) here?
The Potency was inconclusive: 6.31 µM [inhibitor, partial curve, poor fit].

With O=C(CCCCCn1c(=S)[nH]c2cc3c(cc2c1=O)OCO3)N1CCN(C(=O)c2ccco2)CC1 as the molecule, how does the Potency read?
Its Potency is inconclusive: 1.78 µM [inhibitor, partial curve].

With CCN1CCN(c2cc(C)c3cc(NC(=O)c4cccnc4Cl)ccc3n2)CC1 as the molecule, how does the Potency read?
Its Potency is inconclusive: 25.1 µM [inhibitor, partial curve].

How did the Potency turn out when CCOc1ccc(CC(=O)OCc2cc(=O)n3cc(Br)ccc3n2)cc1 was run?
The Potency was inconclusive: 35.5 µM [inhibitor, single point].

Which Potency does the source give for COc1ccc(/C=C/C=N/NC(=O)COc2ccc(OC)cc2)cc1 here?
Its Potency is inconclusive: 11.2 µM [inhibitor, partial curve].

With O=C(Cn1ncc2ccsc2c1=O)N1CCN(c2ccc(Cl)cc2)CC1 as the molecule, how does the Potency read?
Its Potency is inconclusive: 17.8 µM [inhibitor, single point].

For COc1ccc(OCC(=O)N2CCN(C(=O)COc3ccc(Br)cc3)CC2)cc1, which Potency is on record?
The Potency was “inactive”.

Which Potency does the source give for Cc1ccc(SC(CC(=O)c2ccc(C(C)(C)C)cc2)C(=O)O)cc1 (stereo not drawn) here?
Its Potency is inconclusive: 15.8 µM [inhibitor, partial curve].

Which Potency does the source give for COc1cccc(NC(=O)CSc2cc(C)c3ccccc3n2)c1 here?
The Potency was “inactive”.

CN(/N=C/c1ccc(O)cc1O)c1nc(-c2ccccc2)cc(-c2ccccc2)n1 was tested. Which Potency did it give?
The Potency was inconclusive: 4.47 µM [inhibitor, partial curve].

Which Potency does the source give for CC(=O)C1=C(O)C(=O)N(Cc2ccccc2)C1c1ccco1 (stereo not drawn) here?
The Potency was “inactive”.

Which Potency does the source give for O=C(Nc1nc(-c2cccs2)c(C(=O)C(F)(F)F)s1)c1ccccc1 here?
The Potency was inconclusive: 11.2 µM [inhibitor, partial curve].

How did the Potency turn out when CCSc1nc2c(c(=O)n1CC)SC(C)C2 (stereo not drawn) was run?
Its Potency is “inactive”.

How did the Potency turn out when OCc1ccc(-c2ccc(-c3ccc(CO)s3)o2)s1 was run?
Its Potency is inconclusive: 7.94 µM [inhibitor, partial curve].

COc1ccccc1C(O)(C(=O)NN(C)c1ccccc1)c1ccccc1OC was tested. Which Potency did it give?
Its Potency is “inactive”.

COc1ccc(NC(=O)/C=C/c2ccco2)cn1 was tested. Which Potency did it give?
Its Potency is inconclusive: 12.6 µM [inhibitor, partial curve].

Which Potency does the source give for O=c1cc(-c2cccc(O)c2O)oc2ccccc12 here?
Its Potency is active: 12.6 µM.

Nc1c(O)ccc2c1C(=O)c1ccccc1C2=O was tested. Which Potency did it give?
The Potency was active: 14.1 µM.

For Nc1sc2c(c1C(=O)NC1CCS(=O)(=O)C1)CCC2 (stereo not drawn), which Potency is on record?
Its Potency is inconclusive: 28.2 µM [inhibitor, partial curve].

Which Potency does the source give for Cn1c(CNc2ccc(Cl)cc2)nc2ccccc21 here?
The Potency was inconclusive: 14.1 µM [inhibitor, partial curve].

Which Potency does the source give for Cc1cc(=O)oc2cc(OCC(=O)NCCc3nc4ccccc4[nH]3)ccc12 here?
The Potency was inconclusive: 14.1 µM [inhibitor, partial curve].

For CCc1ccc(NC(=O)CN2C(=O)C(=O)c3ccccc32)cc1, which Potency is on record?
The Potency was inconclusive: 28.2 µM [inhibitor, single point].

With O=C(CSc1nnc(C2CC2)n1Cc1ccccc1)c1ccc(S(=O)(=O)N2CCOCC2)cc1 as the molecule, how does the Potency read?
The Potency was inconclusive: 15.8 µM [inhibitor, partial curve].

For O=c1[nH]c(CSc2nc3ccccc3s2)nc2cc(Cl)ccc12, which Potency is on record?
The Potency was inconclusive: 17.8 µM [inhibitor, partial curve].

Which Potency does the source give for C=C1CCC2C(C)(C)[C@H](O)CC[C@@]2(C)[C@@H]1COc1cc(=O)oc2ccccc12 (stereo partly drawn) here?
Its Potency is inconclusive: 14.1 µM [inhibitor, partial curve, poor fit].

Which Potency does the source give for Cc1ccc(-n2[nH]c(=O)c(-c3ccccn3)c2C)cc1 here?
Its Potency is inconclusive: 17.8 µM [inhibitor, partial curve].

CC1=NN(C(=O)c2ccccc2)C(O)(c2ccc(Br)cc2)C1 (stereo not drawn) was tested. Which Potency did it give?
Its Potency is inconclusive: 17.8 µM [inhibitor, partial curve].

For CCn1cc(C(=O)Nc2ccc(C)c([N+](=O)[O-])c2)cn1, which Potency is on record?
Its Potency is inconclusive: 17.8 µM [inhibitor, partial curve].

With Cc1cccc(NC(=O)C(c2ccccc2Cl)N2CCOCC2)c1 (stereo not drawn) as the molecule, how does the Potency read?
The Potency was “inactive”.

With CCOC(=O)c1c(C)n(C)c2cc([N+](=O)[O-])c(O)c([N+](=O)[O-])c12 as the molecule, how does the Potency read?
The Potency was active: 8.91 µM.

For COc1ccc(N=C2NC(=O)/C(=C\c3ccco3)S2)cc1, which Potency is on record?
The Potency was active: 10 µM.

How did the Potency turn out when COc1cc(NC(=O)c2ccc(C)cc2)c(OC)cc1NC(=O)CN1CCCCC1 was run?
Its Potency is inconclusive: 20 µM [inhibitor, partial curve].

O=C(/C(C=Nc1cc2c(oc1=O)CCCC2=O)=C(\O)c1ccccc1)c1ccccc1 was tested. Which Potency did it give?
The Potency was inconclusive: 17.8 µM [inhibitor, single point].

CCOC(=O)c1c(CSc2ccc(C)cc2)n(C)c2cc(Br)c(O)c(CN(C)C)c12 was tested. Which Potency did it give?
The Potency was inconclusive: 22.4 µM [inhibitor, partial curve, poor fit].

CC(=O)c1ccc(NC(=O)CN2C(=O)/C(=C/C=C/c3ccccc3)SC2=S)cc1 was tested. Which Potency did it give?
Its Potency is inconclusive: 11.2 µM [inhibitor, partial curve].

With COc1ccccc1OCCC(=O)OCC(=O)c1c(N)n(C)c(=O)n(C)c1=O as the molecule, how does the Potency read?
The Potency was “inactive”.

CCN1CCN(c2ccc(N=Cc3ccc(O)cc3O)cc2)CC1 was tested. Which Potency did it give?
Its Potency is active: 15.8 µM.

With Cc1cc[n+](-c2nc([O-])sc2/C=N/Nc2ccc([N+](=O)[O-])cc2)cc1 as the molecule, how does the Potency read?
The Potency was inconclusive: 17.8 µM [inhibitor, partial curve].

COc1ccc(NC(=O)CCS(=O)(=O)c2cc(Br)cc3c2N(C(C)=O)CC3)c(OC)c1 was tested. Which Potency did it give?
The Potency was “inactive”.

For CCCCC(=O)NC(c1ccc([N+](=O)[O-])cc1)c1c(O)ccc2ccccc12 (stereo not drawn), which Potency is on record?
Its Potency is inconclusive: 39.8 µM [inhibitor, single point].

With Nc1cc2nsnc2cc1Br as the molecule, how does the Potency read?
The Potency was active: 8.91 µM.

O=C(CCCN1C(=O)/C(=C/c2ccccc2)SC1=S)Nc1ccc(O)cc1 was tested. Which Potency did it give?
The Potency was inconclusive: 20 µM [inhibitor, partial curve].

Which Potency does the source give for Cc1nn(-c2ccccc2)c(C)c1C(=O)OC/C(O)=C(\C#N)c1nc2ccccc2[nH]1 here?
The Potency was inconclusive: 22.4 µM [inhibitor, partial curve].

With Cc1ccc(NC(=O)c2ccc(-c3nn(C)c(=O)c4ccccc34)cc2)c(C)c1 as the molecule, how does the Potency read?
Its Potency is inconclusive: 12.6 µM [inhibitor, partial curve].

For CCOc1ncnc2c1sc1nc(C)cc(C)c12, which Potency is on record?
The Potency was inconclusive: 3.16 µM [inhibitor, single point].

How did the Potency turn out when On1nnc2c3ccccc3c3ccccc3c21 was run?
Its Potency is inconclusive: 25.1 µM [inhibitor, partial curve].

For Cc1ccc(C2=NN(Cc3nnc(-c4ccccc4)o3)C(=O)SC2)cc1, which Potency is on record?
Its Potency is “inactive”.

With C/C(=N\NC(=O)C(=O)N/N=C(\C)c1cccc(O)c1)c1cccc(O)c1 as the molecule, how does the Potency read?
Its Potency is inconclusive: 2.24 µM [inhibitor, full curve].

COc1ccccc1Cn1c(CNS(=O)(=O)c2c(C)cc(C)cc2C)nc2cccnc21 was tested. Which Potency did it give?
Its Potency is “inactive”.

With CCCC(c1nnnn1CCc1ccccc1)N1CCC(C(N)=O)CC1 (stereo not drawn) as the molecule, how does the Potency read?
The Potency was “inactive”.

How did the Potency turn out when O=C(Nc1cccc(Cl)c1)Nc1ccccc1NS(=O)(=O)c1cccs1 was run?
The Potency was inconclusive: 12.6 µM [inhibitor, partial curve, poor fit].

How did the Potency turn out when Cc1ccc2c(c1)N(CC(=O)NCc1cccc(Cl)c1)C(=O)c1cccnc1O2 was run?
The Potency was “inactive”.

For Cc1cccc(N2C(=O)C(Cl)=C(Nc3c(C)n(C)n(-c4ccccc4)c3=O)C2=O)c1C, which Potency is on record?
The Potency was inconclusive: 25.1 µM [inhibitor, partial curve].

For CCCn1c(N)c(C(c2ccc(C(=O)OC)cc2)N2CCN(c3ccccc3)CC2)c(=O)[nH]c1=O (stereo not drawn), which Potency is on record?
Its Potency is inconclusive: 31.6 µM [inhibitor, single point].

Which Potency does the source give for Oc1ccc(-c2nc3cnccn3c2Nc2ccc3c(c2)OCCO3)cc1 here?
Its Potency is “inactive”.

O=C1SC(SCc2ccccc2Cl)=N/C1=C\c1ccc(C(=O)O)cc1 was tested. Which Potency did it give?
The Potency was inconclusive: 14.1 µM [inhibitor, partial curve].

How did the Potency turn out when O=C(CN1CCN(Cc2ccc(Cl)cc2)CC1)N/N=C/c1c[nH]c2ccccc12 was run?
The Potency was “inactive”.

With COc1ccccc1/C=C/C(=O)Nc1nc(N)n(-c2ccccc2)n1 as the molecule, how does the Potency read?
The Potency was inconclusive: 8.91 µM [inhibitor, full curve, poor fit].

For COc1cccc(N/C=C/c2onc(C)c2[N+](=O)[O-])c1, which Potency is on record?
Its Potency is inconclusive: 1.78 µM [inhibitor, full curve].

— PubChem BioAssay AID1460 (National Center for Advancing Translational Sciences (NCATS), 2008)
